The list shows a part of the results. The main result of the screen is listed elsewhere. These columns were measured beside it and carry no call. Compounds called inactive in the main read-out are mostly missing here.
test: growth inhibition of WT strain, primary screen, mitochondrial fusion inhibitor project, WT and mutant strains, chemical genetic (AID 1362); details: mitochondrial fusion phenotypic screen, at 10 µM; note: tested in S. cerevisiae

| Compound | inhibition [%] |
| --- | --- |
| Clc1ccc(OCCn2cnc3ccccc32)c(Cl)c1 | 56.4 |
| CC(=O)NC1C(c2nc3ccccc3s2)=C(c2ccccc2)C(=O)N1c1ccc(C)cc1 (stereo not drawn) | 18.9 |
| Cc1ccc(-c2ncccc2OC(=O)C23CC4CC(CC(C4)C2)C3)cc1 | 8.82 |
| Cc1cccc(NC(=S)N/N=C(\c2ccccc2)C(C)C)c1 | 67.8 |
| COc1cnc(-c2ccccn2)nc1Oc1ccccc1Cl | 48 |
| CCCCCCn1c(N2CCN(c3ccccc3)CC2)nc2c1c(=O)n(C)c(=O)n2C | 8.19 |
| O=C(Cc1cccs1)N1CCN(c2nc(-c3ccc(Cl)cc3)cs2)CC1 | 48.9 |
| CCOC(=O)c1sc(NC(=O)Nc2ccc(Cl)cc2)cc1C | 41.2 |
| CCC(C)c1ccccc1NC(=O)COC(=O)c1ccc2[nH]c3c(c2c1)CCCC3 (stereo not drawn) | 9.25 |
| Cc1ccc(Cc2c[nH]c(=S)s2)cc1 | 58.2 |
| Cc1ccc(N=Cc2c(O)n(-c3ccc4c(c3)OCO4)c(=O)c3ccccc23)cc1 | 6.72 |
| COc1ccc(CCNC(=S)Nc2cc(C)cc(C)c2)cc1 | 12.1 |
| O=C1C2C3C=CC(CO)(O3)C2C(=O)N1c1ccccc1-c1ccccc1 (stereo not drawn) | 54.3 |
| Cc1ccc(C(=O)c2cc(C)sc2NC(=O)CN2CCN(C(=O)c3ccco3)CC2)cc1 | 46.4 |
| CCCCNC(=S)N(C)/N=C/c1ccc2c(c1)OCO2 | 28.1 |
| CCN1C/C(=C/c2cccc([N+](=O)[O-])c2)C(=O)/C(=C/c2cccc([N+](=O)[O-])c2)C1 | 59.9 |
| COc1ccc(C2C3=C(CC(C)(C)CC3=O)Oc3ncn(Cc4ccccc4)c(=N)c32)cc1 (stereo not drawn) | -34.6 |
| Nc1nc(-c2cccc(Br)c2)cs1 | 40 |
| COc1ccc(-c2nnc(SCc3nnc(-c4ccc(Cl)cc4)o3)n2-c2ccccc2)cc1 | 22.3 |
| COCCCNC(=O)CS(=O)(=O)Cc1nc(-c2cccc(OC)c2)oc1C | -0.39 |
| Cc1c(Cl)cccc1NC(=O)c1cc(-c2ccccc2O)n[nH]1 | 27.9 |
| CC(C)(C)Nc1nc(SCc2ccccc2)nc(N2CCOCC2)n1 | 15.2 |

| Compound | inhibition [%] |
| --- | --- |
| Cc1cccc(-c2ncc(CN3CCCC(CO)(Cc4cccc(Cl)c4)C3)cn2)c1 (stereo not drawn) | 17.1 |
| CCOC(=O)C1(CCCc2ccccc2)CCN(Cc2nccn2CC)CC1 | 31.4 |
| Clc1ccc(OCCn2c(-c3ccco3)nc3ccccc32)cc1 | 64.2 |
| CC(C)c1nc(SCC(=O)Nc2nc3c(s2)CCCC3)c2ccccc2n1 | 44.8 |
| CC1CC1C(=O)Nc1nc(-c2cccs2)c(-c2cccs2)s1 (stereo not drawn) | 33.5 |
| C/C=C(\C)CN1CCN(c2cc(C)ccc2C)CC1 | 5.4 |
| Clc1cccc(Nc2ncnc3ccc(Br)cc23)c1 | 56 |
| COC(=O)c1ccccc1NC(=O)CNc1cc(Cl)ccc1N1CCOCC1 | 4.26 |
| O=C(O)c1cn(-c2ccc(N3CCCC3)c(F)c2)c2c(F)c(F)c(F)cc2c1=O | 70.7 |
| CC(=O)N1N=C(c2ccc(Br)cc2)CC1c1cn(C)c2ccccc12 (stereo not drawn) | 32.1 |
| COc1ccc(OC)c(-c2cc(C(=O)Nc3c(C)nn(Cc4ccccc4)c3C)no2)c1 | 18.7 |
| O=[N+]([O-])c1ccccc1S(=O)(=O)NCCC1=CCCCC1 | 6.79 |
| Cc1cccc(NC(=S)N(Cc2ccco2)C(C)c2cccs2)c1 (stereo not drawn) | 48.3 |
| c1ccc(-c2csc(N3CCN(c4ccccn4)CC3)n2)cc1 | 18.8 |
| CC1CCCCC1NC(=O)/C(C#N)=C/c1ccccc1F (stereo not drawn) | 47.2 |
| O=C(COC(=O)C1COc2ccccc2O1)NC(=O)Nc1ccc2c(c1)OCCO2 (stereo not drawn) | 97.7 |
| COc1ccc(S(=O)(=O)N2CCC(C(=O)N3CCCCC3)CC2)cc1OC | 22.5 |
| CC(=O)C(=Nc1ccccc1Cl)NNc1ccc(Cl)cc1 | 43.2 |
| CCNC(=S)N/N=C/c1cc(C)n(-c2ccc(Cl)cc2)c1C | 61.7 |
| Cc1cc(C)n(C(=O)/C(C#N)=N/Nc2cc(Cl)cc(Cl)c2)n1 | 85 |
| COc1cc(CNCCc2c[nH]c3ccccc23)ccc1OCc1ccc(F)cc1 | 82.6 |
| COc1cccc(NC(=O)Nc2ccc(C(C)(C)C)cc2)c1 | 27.8 |

| Compound | inhibition [%] |
| --- | --- |
| COCCCNC(=S)NC1CC2CCCC(C1)N2Cc1ccco1 (stereo not drawn) | 97.3 |
| O=C1C=CC(=O)N1CCCCCCN1C(=O)C=CC1=O | 82.4 |
| O=C1c2cccc(OCC(=O)N3CCCc4ccccc43)c2CCN1Cc1ccc(F)cc1 | 29.7 |
| Cc1ccc(NC(=O)N2N=C(c3ccc(F)cc3)CC2c2ccc(F)cc2)cc1 (stereo not drawn) | 64.6 |
| O=C(Nc1cccc(C(F)(F)F)c1)n1cc(-c2ccccn2)c(N2CCOCC2)n1 | 46.3 |
| Cc1ncoc1C(=O)N1CCCC(C(=O)c2ccc(-c3ccccc3)cc2)C1 (stereo not drawn) | 61.3 |
| Cc1coc2c1C(=O)C(=O)c1c-2ccc2c1CCCC2(C)C | 67.7 |
| Cc1cc(C)cc(N(CC(=O)NCC2CCCO2)C(=O)CCC(=O)Nc2cc(C)on2)c1 (stereo not drawn) | 97.3 |
| Fc1ccc(CO/N=C/C2=C(Cl)c3ccccc3CC2)cc1 | 27.3 |
| Cc1ccc(-c2csc3nc4c5ccccc5c(NCCCN5CCOCC5)nn4c(=O)c23)cc1 | 27.1 |
| O=C(O)c1ccc(-c2nc(-c3ccc(Cl)c(Cl)c3)cs2)cc1 | 51.9 |
| O=S(=O)(Nc1ccc(-c2csc(-c3ccccc3)n2)cc1)c1ccc(F)cc1 | 90.5 |
| Cc1occc(=O)c1OC(=O)Nc1ccc(Cl)c(Cl)c1 | 63.9 |
| COc1ccc(CCn2nnnc2C(C(C)C)N2CCN(c3ncccn3)CC2)cc1OC (stereo not drawn) | 11.3 |
| c1ccc(CSc2ncnc3c2cnn3Cc2ccccc2)cc1 | 43.8 |
| CCCCCC(=O)O[C@]1(C(C)=O)CC[C@H]2[C@@H]3CCC4=CC(=O)CC[C@]4(C)[C@H]3CC[C@@]21C | -0.28 |
| CCC1(c2ccccc2)NC(=S)N(c2ccc(C)cc2)N1 (stereo not drawn) | 40.8 |
| CCOCCCNC(=O)/C(C#N)=C/c1ccc([N+](=O)[O-])o1 | 89.7 |
| Cc1ccc(C(=O)Nc2ccc(C)c(S(=O)(=O)Nc3ccccc3Cl)c2)s1 | 38.3 |
| CC(C)OC(=O)c1c(-c2ccc(C(C)C)cc2)csc1NC(=O)C1CCCO1 (stereo not drawn) | -8.21 |
| COc1ccc2c(c1)C1=C(CC2)C(c2ccc(C)cc2)NC(=S)N1 (stereo not drawn) | 72.1 |
| S=c1[nH]nc(-c2ccco2)n1/N=C/c1ccc(Cl)c(Cl)c1 | 48.1 |

| Compound | inhibition [%] |
| --- | --- |
| CCc1nnc(NC(=O)C2Cc3ccccc3CN2S(=O)(=O)c2ccc(C)cc2)s1 (stereo not drawn) | 1.89 |
| O=c1c2ccccc2nc(/C=C/c2ccc([N+](=O)[O-])o2)n1CCCO | 28 |
| c1ccc2c(c1)[nH]c1c(N3CCCC3)ncnc12 | -2.96 |
| COc1ccc(Cl)cc1S(=O)(=O)N1CCN(Cc2ccc3c(c2)OCO3)CC1 | 37.9 |
| COc1cccc(Nc2nc(-c3cccs3)nc3ccccc23)c1 | 62.5 |
| C=CCN(CC=C)C(=S)NC(=O)c1ccc(-c2ccccc2)cc1 | 60.2 |
| O=C(c1ccc(Br)o1)N(Cc1ccccc1)Cc1ccccc1 | 51.7 |
| CCc1ccc(C(C)NC(=O)/C(C#N)=C\c2cn[nH]c2-c2ccccc2)cc1 (stereo not drawn) | 15.7 |
| COc1ccccc1NC(=S)NCCSc1ccc(Cl)cc1 | 61.1 |
| COc1cc(CNCc2ccccn2)ccc1OCc1ccc(Cl)c(Cl)c1 | 51.7 |
| CC(C)=C1C2CCC1C(C(=O)Nc1sc(C)c(-c3ccc(C(C)C)cc3)c1C(N)=O)C2C(=O)O (stereo not drawn) | 4.07 |
| C=CCNC(=S)NN=C1CCCCCCC1 | 37.6 |
| CCCc1ccc(/C=C2\C(=O)c3ccccc3C(O)=C2C(=O)OCC)cc1 | 24.6 |
| OC(CC1CC12c1ccccc1-c1ncccc12)(c1ccccc1)c1ccccc1 (stereo not drawn) | 12.6 |
| C=CC[n+]1ccc(/C=C2\C=Cc3cc(C)ccc3N2CC)c2ccccc21 | 84.8 |
| O=C(NCc1ccc2c(c1)OCO2)c1ccc(CSCc2ccc(Cl)cc2)o1 | 32.2 |
| CCOc1cc(CNn2cn[nH]c2=S)cc(Cl)c1OCc1ccccc1F | 22 |
| CCC(C)c1ccc(NC(=S)Nc2ccc(OC)cc2)cc1 (stereo not drawn) | 37.6 |
| O=C(NCc1ccccc1)/C(=C/c1ccc(OC(F)F)cc1)c1ccccc1 | 13.2 |
| Fc1ccc(CCNC(=S)Nc2ccc(F)c(Cl)c2)cc1 | 75.4 |
| Cc1cc(N/N=C/c2ccc(O)c(C)c2O)nc(-c2ccccc2O)n1 | 23.3 |
| Cc1ccc(C(=O)CC(=O)c2cccc(F)c2)c(O)c1 | 51.6 |

| Compound | inhibition [%] |
| --- | --- |
| OC(CNCc1ccc(-c2ccccc2)cc1)c1ccccc1 (stereo not drawn) | 58.1 |
| O=[N+]([O-])c1cc(C(F)(F)F)ccc1NCCc1c[nH]c2ccc(O)cc12 | 43.2 |
| CCCCCc1ccc(C(=O)CCCC)c(=S)[nH]1 | 63.1 |
| COC(=O)CP(=O)(c1ccccc1)c1ccccc1 | -3.61 |
| CCN(Cc1cc2ccc(C)cc2[nH]c1=O)C(=O)c1ccncc1 | 3.98 |
| CN(C)CCCN(C(=O)CCc1ccccc1)c1nc2c(F)cccc2s1 | 50.6 |
| COc1ccc(N/C(N)=N/c2nc(CSc3ccc(C)cc3)cc(=O)[nH]2)cc1 | 10.5 |
| COc1ccc(NC(=S)Nc2ccc(OCc3ccccc3)cc2)c(OC)c1 | -6.01 |
| Cc1cccc(N2CCN(C(=O)C(Cc3ccccc3)n3cccc3)CC2)c1C (stereo not drawn) | 23.4 |
| Cc1cc(Oc2cnn(C(C)(C)C)c(=O)c2Cl)cc(C(C)C)c1 | 10.7 |
| Cc1ccc(CSCc2nc3ccccc3[nH]2)cc1 | 66.8 |
| Cc1ccc(C(=C2C3C=CC2C2C(=O)NC(=O)C32)c2ccc(C)cc2)cc1 (stereo not drawn) | 53 |
| Cc1ccc(S(=O)(=O)N(CCCO)CC(O)CON=C2c3ccccc3-c3ccccc32)cc1 (stereo not drawn) | 10.9 |
| CCCCCn1c(N2CCC(Cc3ccccc3)CC2)nc2c1c(=O)[nH]c(=O)n2C | 37.2 |
| C=CCNC(=S)NNC(=O)COc1ccc2cc(Br)ccc2c1 | 13.9 |
| COc1cc(/C=C/c2ccc(O)cc2)cc(OC)c1 | 46.8 |
| Cc1ccc(C(=O)Nc2ccccc2Oc2ccccc2)cc1[N+](=O)[O-] | 26.1 |
| O=C(Nc1ccccc1Oc1ccccc1)c1cc([N+](=O)[O-])ccc1Cl | 18.6 |
| Oc1ccc(N=Nc2nc(-c3ccccc3)c(-c3ccccc3)[nH]2)cc1 | 80 |
| C/C(CCC12CC3CC(CC(C3)C1)C2)=N\NC(N)=S | 77 |
